# According to the supplement of paper PMC11383711:
# The list shows a part of the results. Binding of human antibodies (heavy:light variable regions, tested as scFv in one mRNA-display pool) to influenza hemagglutinin, with or without the stem antibody CR9114 bound first. Score = (mean enrichment − median) / interquartile range of that screen; higher = more enriched, 0 = typical non-binder. Active = above the paper's cut-off per screen: stems 28; unblocked H1 Solomon Islands 5, H1 Michigan 3, H3 5, H5 19, H7 2.85, both B 5; blocked 9, 7, H5 10, H7 10, B Phuket 10, B Lee 11.5. Scores are scaled within each screen and are no affinities; replicates correlate at about 0.6 to 0.9, and antibodies rare in the pool are noisier.
# B1: R95-1A03 (protein)
# chain 1: EVQLVESGGGLIQPGGSLRLSCAASGFTVSINYMSWVRQAPGKGLEWVSVIYTGGETYYADSVKGRFTISRDNSKNTLYLQMNSLRAEDTAVYYCARDGPPGDGSLDYWGQGTLVTVSS
# chain 2: SYELTQPPSVSVAPGQTARITCGGNNIGSKSVHWYQQKPGQAPVLVVYDDSDRPSGIPERFSGSNSGNTATLTISRVEAGDEADYYCQVWDSFSDVVFGGGTKLTVL
# B2: C7-3-A05 (protein)
# chain 1: VQLVQSGAEVKKPGPGASVKVSCKASGDSFTNYYMHWVRQAPGQGLEWMGMINPNGGNVTYAQNFQDRVTMTIDTSTSTVYMELSSLRSEDTAVYFCVRVFEEQWLAYWGQGTLVTVSS
# chain 2: EIVLTQSPATLSLSPGERATLSCRASQSVRNYLAWYQQKPGQAPRLLIYDASNRATGIPARFSGSGSGTDFTLTISSLEPEDSAVYYCQQRFNGLCSFGQGTKVEIK
# B3: K77-2G11 (protein)
# chain 1: QMHLQESGPGLVKPSQTLSLTCSVSGGSINNGGYYWSWVRQHPGKGLEWVGYVYHSGNTYYNPSLKSRISMSVDTSNNRFSLKLNPVTAADTAVYFCARVGLTHYDVLTAYYSGYSDTWGQGTLVTVSS
# chain 2: DIQMTQSPSSVSASVGDRVTITCRASQDIATWLAWYQQKPVGPPKLLIHGASTLGSGVPSRFSGSGSGTDFTLTISGLQPGDFATYFCQQAYSLPITFGQGTRL
# B4: 01.z.01 (protein)
# chain 1: QVQLQESGPGLVKPSQTLSLTCTVSGGSITNDDSYWSWIRQTPGKGLEWIGYIFHSGNTYYNPSLKSRVTISVDTSKNQFSLEVTSVTAADTAVYYCARDTGVIKDEYFYYYGLDVWGQGTTVTVSS
# chain 2: EIVMTQSPATLSVSPGERATLSCRAGQSVNTNLAWFQQKPGQAPRLLIYGASTRATGIPARFSGSGSGTEFTLTISSLQSEDCAVYYCQQYNQWPLNTFGQGTKLEIK
# B5: R95-1C09 (protein)
# chain 1: LVQLQESGPGLVKPSETLSLTCTVSGDSVTDYYWSWIRQPPGKGLEWIGYIYYSGITNYNPSLKSRVTMSVDTSKNQISLKLTSVIAADTAVYYCARDGRLFDIWGQGTMVAVSS
# chain 2: EIVLTQSPGTLSLSPGERATLSCRASQHVSSSYLAWYQQKPGQAPRLLIYDASSRATGIPDRFSGSGSGTDFTLTISRLEPEDFAVYYCQQYGSSHGWTFGQGTKVEVK
# B6: K77-1B08 (protein)
# chain 1: EVQLVQSGAEVKKPGESLKISCKGFGFSFTNYWIGWVRQMPGKGLDWMGIIYPGDSDPRYSPSFQGQVTISADKSLSTAFLQWNSLKASDTAMYYCASNILNYRKNWYLGGAFDIWGQGTMVTVSS
# chain 2: QSALTQPPSASGTPGQGITISCSGRSSNIGSNTVNWYQQLPGTAPKLLIYTNDQRPSGVPDRFSGSRSGTSASLAISGLQSGDESDYYCATWDDSLNAYVFGTGTKVTVL
# B7: R95-2A08 (protein)
# chain 1: EVQLVESGGGLVQPGGSLRLSCAASGFIVNKNHMNWVRQAPGKGLEWVSVIYSGGNPYHADSVEGRFTISRDISKNTVHLQMNSLGAEDTAVYYCARDGGGWYVNDAFDIWGQGTTVTVSS
# chain 2: QSALTQPASVSGSPGQSITISCTGTSSDIGGYNYVSWYQQHPGKAPKLIIFEVTTRPSGISNRFSGSKSGNTASLTISGLQAEDEADYYCSSYRSTTDVLFGGGTKVTVL
# Target: Influenza A H1N1 A/Michigan/45/2015 hemagglutinin ectodomain
# Assay: mRNA display binding score; higher = more enriched on the antigen
# Settings: antigen blocked with: 2 µM CR9114 IgG
# Description: (§1)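 A pool of natively paired antibodies, displayed as scFv on mRNA, was selected once on antigen-coated beads and sequenced before and after; two replicates.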
row,Binder,mRNA display binding score
1,B1,inactive: -0.471
2,B2,inactive: 0.848
3,B3,inactive: 1.02
4,B4,inactive: 2.27
5,B5,inactive: -0.00637
6,B6,inactive: -0.00196
7,B7,inactive: -0.159

# Same assay, conditions: antigen blocked with: nothing
row,Binder,mRNA display binding score
1,B1,inactive: -0.619
2,B2,inactive: 0.485
3,B3,inactive: 0.397
4,B4,inactive: 0.617
5,B5,inactive: 0.229
6,B6,inactive: -0.272
7,B7,inactive: -0.428

# Target: Influenza A H1N1 A/Solomon Islands/3/2006 hemagglutinin ectodomain
# Assay: as above
# Settings: antigen blocked with: 2 µM CR9114 IgG
# Description: as §1
row,Binder,mRNA display binding score
1,B1,inactive: -0.547
2,B2,inactive: 1.03
3,B3,inactive: 1.13
4,B4,inactive: 0.222
5,B5,inactive: -0.0191
6,B6,inactive: 0.0552
7,B7,inactive: -0.322

# Same assay, conditions: antigen blocked with: nothing
row,Binder,mRNA display binding score
1,B1,inactive: -0.442
2,B2,inactive: 0.7
3,B3,inactive: 0.358
4,B4,inactive: 0.286
5,B5,inactive: 0.101
6,B6,inactive: -0.145
7,B7,inactive: -0.466

# Target: Influenza A H3N2 A/Singapore/INFIMH-16-0019/2016 hemagglutinin ectodomain
# Assay: as above
# Settings: antigen blocked with: nothing
# Description: as §1
row,Binder,mRNA display binding score
1,B1,inactive: -0.217
2,B2,inactive: 0.484
3,B3,inactive: 0.381
4,B4,active: 5.64
5,B5,inactive: 0.177
6,B6,inactive: 1.01
7,B7,inactive: -0.545

# Target: Influenza A H5N1 A/Qinghai/1A/2005 hemagglutinin ectodomain
# Assay: as above
# Settings: antigen blocked with: 2 µM CR9114 IgG
# Description: as §1
row,Binder,mRNA display binding score
1,B1,inactive: -0.75
2,B2,inactive: 0.457
3,B3,inactive: 2.48
4,B4,inactive: 9.42
5,B5,inactive: 0.156
6,B6,inactive: -0.227
7,B7,inactive: 0.00718

# Same assay, conditions: antigen blocked with: nothing
row,Binder,mRNA display binding score
1,B1,inactive: -0.577
2,B2,inactive: 0.659
3,B3,inactive: 4.9
4,B4,active: 19.7
5,B5,inactive: 1.97
6,B6,inactive: -0.53
7,B7,inactive: -0.25

# Target: Influenza A H7N9 A/Shanghai/2/2013 hemagglutinin ectodomain
# Assay: as above
# Settings: antigen blocked with: 2 µM CR9114 IgG
# Description: as §1
row,Binder,mRNA display binding score
1,B1,inactive: -0.513
2,B2,inactive: 0.795
3,B3,inactive: 2.03
4,B4,active: 16.7
5,B5,inactive: 0.521
6,B6,inactive: -0.615
7,B7,inactive: 0.438

# Same assay, conditions: antigen blocked with: nothing
row,Binder,mRNA display binding score
1,B1,inactive: -0.57
2,B2,inactive: 0.589
3,B3,inactive: 0.596
4,B4,inactive: 0.49
5,B5,inactive: 0.363
6,B6,inactive: -0.169
7,B7,inactive: -0.399

# Target: Influenza B/Lee/1940 hemagglutinin ectodomain
# Assay: as above
# Settings: antigen blocked with: 2 µM CR9114 IgG
# Description: as §1
row,Binder,mRNA display binding score
1,B1,inactive: -0.342
2,B2,inactive: 0.0876
3,B3,inactive: 9.18
4,B4,inactive: 0.225
5,B5,inactive: -0.104
6,B6,inactive: -0.114
7,B7,inactive: 0.00685

# Same assay, conditions: antigen blocked with: nothing
row,Binder,mRNA display binding score
1,B1,inactive: -0.365
2,B2,inactive: 0.222
3,B3,active: 216
4,B4,inactive: 0.246
5,B5,active: 6.99
6,B6,inactive: -0.316
7,B7,active: 6.16

# Target: Influenza B/Phuket/3073/2013 hemagglutinin ectodomain
# Assay: as above
# Settings: antigen blocked with: 2 µM CR9114 IgG
# Description: as §1
row,Binder,mRNA display binding score
1,B1,inactive: -0.601
2,B2,inactive: -0.119
3,B3,active: 81.5
4,B4,inactive: 0.0108
5,B5,inactive: 5.11
6,B6,inactive: -0.117
7,B7,inactive: -0.43

# Same assay, conditions: antigen blocked with: nothing
row,Binder,mRNA display binding score
1,B1,inactive: -0.453
2,B2,inactive: 0.144
3,B3,active: 96.5
4,B4,inactive: -0.15
5,B5,active: 54.1
6,B6,inactive: -0.377
7,B7,inactive: -0.231
